The list shows a part of the results. Shown are side measurements of this screen, not its main read-out; they come without a call.
Key:
Assay in all cases: Primary Screen for Target Class Profiling of Small Molecule Inhibitors of Methyltransferases
[1] = molecular target: Glycine N-methyltransferase (Homo sapiens) (UniProt Q14749); conditions: purified enzyme, MTase-Glo SAH luminescence; measured here: GNMT inhibition; at 40 µM; stronger effect = lower value
Method in brief: (§1)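 Each enzyme was assayed with SAM and its substrate. SAH formation detected by MTase-Glo luminescence; single-point 40 uM screen[…].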

[2] = molecular target: Guanidinoacetate N-methyltransferase (Homo sapiens) (UniProt Q14353); conditions: purified enzyme, MTase-Glo SAH luminescence; measured here: GAMT inhibition; at 40 µM; stronger effect = lower value
Method in brief: as §1

[3] = molecular target: Histamine N-methyltransferase (Homo sapiens) (UniProt P50135); conditions: purified enzyme, MTase-Glo SAH luminescence; measured here: HNMT inhibition; at 40 µM; stronger effect = lower value
Method in brief: as §1

[4] = molecular target: Nicotinamide N-methyltransferase (Homo sapiens) (UniProt P40261); conditions: purified enzyme, MTase-Glo SAH luminescence; measured here: NNMT inhibition; at 40 µM; stronger effect = lower value
Method in brief: as §1

[5] = molecular target: Phenylethanolamine N-methyltransferase (Homo sapiens) (UniProt P11086); conditions: purified enzyme, MTase-Glo SAH luminescence; measured here: PNMT inhibition; at 40 µM; stronger effect = lower value
Method in brief: as §1
% is set by controls: 0 for no effect and ±100 for the full control effect.

SMILES	activity change, negative = inhibition [1]	activity change, negative = inhibition [2]	activity change, negative = inhibition [3]	activity change, negative = inhibition [4]	activity change, negative = inhibition [5]
O=C1NC[C@@H](CCC(=O)N2CCc3ccccc32)N2C[C@@H](NCc3ccc(CO)o3)C[C@@H]12	-4.89%	-1.11%	-1.14%	-2.41%	-5.58%
CN1C(=O)c2cccn2CC1CNC(=O)c1cccc2nccnc12 (stereo not drawn)	-4.52%	-3%	0.351%	-7.85%	-2.84%
C=CC(=O)N1CCC(Oc2cc3c(Nc4ccc(Cl)c(Cl)c4F)ncnc3cc2OC)CC1	-17.4%	0.996%	-30.9%	-24.2%	-20.5%
O=c1[nH]c2ccc(S(=O)(=O)Nc3ccccc3)cc2[nH]1	13%	0%	13.4%	5.46%	1.88%
CCOC(=O)c1cc2n(n1)CC(C)(C(=O)NC1CCCC1)N(c1cccc(F)c1)C2=O (stereo not drawn)	9.25%	4.12%	7.92%	3.91%	6.69%
CC(=O)NC[C@H]1CN(c2ccc(N3CCN(C(=O)CO)CC3)c(F)c2)C(=O)O1	-9.62%	-14.5%	-6.02%	-21%	-11%
CCN(CCO)CCCOc1ccc2c(Nc3cc(CC(=O)Nc4cccc(F)c4)[nH]n3)ncnc2c1	-8.6%	7.35%	-48.2%	-20.1%	-11.7%
Cc1c(C(=O)NCCCO)cnn1-c1nc(-c2cccc(C(F)(F)F)c2)cs1	-19.9%	10.2%	-14.6%	-9.56%	-2.95%
CC(NC(=O)C(O)C(C)C)C(=O)NC1C(=O)N(C)CCc2ccccc21 (stereo not drawn)	-7.04%	–	-4.55%	–	–
CC(C)Cn1c(=O)c2ccc(C(=O)NC3CCCC3)cc2n2c(=O)n(CC(=O)NC3CCCC3)nc12	3.74%	3.67%	10%	1.24%	0.565%
CC(C)CC(NP(=O)(O)O[C@@H]1O[C@@H](C)[C@H](O)[C@@H](O)[C@H]1O)C(=O)NC(Cc1c[nH]c2ccccc12)C(=O)O (stereo partly drawn)	-0.534%	4.28%	-1.06%	-4.32%	0.241%
CC(C)c1cc(C(=O)N[C@@H]2COCC[C@@H]2Oc2cccc(F)c2)nc(N)n1	-2.6%	2.02%	-0.764%	0.317%	-6.5%
COc1ccccc1CN1C(=O)c2nc3ccccc3n2CC1(C)C(=O)NC1CCCC(C)C1C (stereo not drawn)	2.09%	0.142%	0.438%	1.89%	-1.65%
C=CCn1c(=O)c2ccc(C(=O)NC(C)C)cc2n2c(=O)n(CC(=O)Nc3cc(C)ccc3C)nc12	-1.4%	4.02%	1.34%	0.649%	-1.75%
COc1ccc(C(=O)N2CCCN(c3nnc4ccc(Cl)cn34)CC2)cn1	-4.1%	-0.642%	-0.418%	-10.4%	-6.35%
O=C(c1ccc(F)cc1)N1CCC(OCCOc2cccnc2)CC1	-0.24%	-1.54%	-2.53%	-2%	1.64%
CC(=O)C12OC(C)(C)OC1CC1C3CCC4=CC(=O)C=CC4(C)C3(F)C(O)CC12C (stereo not drawn)	-0.712%	6.99%	0.698%	-16.6%	-6.69%
CC(C)CCNC(=O)C1c2c(n(C)c3ccccc23)SCC(=O)N1C1CCCCC1 (stereo not drawn)	7.77%	0%	9.19%	7.6%	6.75%
O=C(Cn1nc2c(cc1=O)CCCCC2)Nc1nnc(C2CCCO2)s1 (stereo not drawn)	-3.01%	-1.4%	1.08%	-5.53%	2.97%
CCCCCCCCCCCCCCCC(=O)OC(CC(=O)O)C[N+](C)(C)C (stereo not drawn)	-2.98%	7.61%	1.96%	-8.78%	8%

SMILES	activity change, negative = inhibition [1]	activity change, negative = inhibition [2]	activity change, negative = inhibition [3]	activity change, negative = inhibition [4]	activity change, negative = inhibition [5]
O=C(NCc1ccccc1Cl)c1ccc2c(=O)nc3c(-c4ccc(F)cc4)n[nH]n3c2c1	-2.83%	-2.03%	-6.18%	-4.65%	-6.45%
C[C@@H](O[C@H]1OCCN(Cc2n[nH]nc2CN(C)C)[C@H]1c1ccc(F)cc1)c1cc(C(F)(F)F)cc(C(F)(F)F)c1	-3.33%	19.9%	11.6%	-3.76%	7.65%
Cc1cc2[nH]c(=O)[nH]c2cc1S(=O)(=O)N1CCN(c2ccccc2)CC1	5.23%	1.54%	8.44%	-9.94%	-0.031%
CCC(C(=O)NCc1ccccc1)n1ccc2cc(S(=O)(=O)N3CCCCC3)ccc21 (stereo not drawn)	7.63%	1.75%	9.11%	10.3%	6.96%
O=c1c2ccccc2n2c(=O)n(Cc3ccccc3F)nc2n1CCc1ccccc1	-5.03%	-6.34%	10.1%	-5.94%	-6.94%
CO[C@@H](C(=O)N1Cc2[nH]nc(NC(=O)c3ccc(N4CCN(C)CC4)cc3)c2C1)c1ccccc1	–	2.32%	–	-12.3%	-3.68%
CCC1Oc2ccc(NC(=O)Cc3ccc(OC)cc3)cc2CN(Cc2ccc3c(c2)OCO3)C1=O (stereo not drawn)	-3.9%	-0.534%	-8.33%	-8.04%	-5.97%
COCC(=O)N[C@@H]1CCC[C@@H](C(=O)NC2CC2)CC(=O)N(C)C1	-9.89%	-11.3%	-17.4%	-18%	-1.79%
CN1CCN(C2=Nc3cc(Cl)ccc3Nc3ccccc32)CC1	1.02%	12.4%	3.74%	-8.91%	7.75%
COc1ccc([C@@H](NC(=O)c2coc3ccccc23)C2CC(O)C2)cn1 (stereo partly drawn)	0.912%	1.15%	2.23%	-5.72%	-0.902%
COc1ccc(C)cc1NC(=O)CCC[C@@H]1[C@H]2CCCN3CCC[C@@H](CN1Cc1cccnc1)[C@@H]23	-3.65%	1.79%	-13.1%	0.599%	2.98%
CCCCCc1ccc(/C=C/[C@H](O)[C@@H](CO)NC)cc1	–	4.58%	–	-16.3%	-7.84%
Cc1c(Cc2ccc3ccccc3n2)c2cc(F)ccc2n1CC(=O)O	-2.65%	2.96%	8.98%	-16.6%	0.53%
CC1CCN(S(=O)(=O)c2ccc3c(c2)oc(=O)n3CC(=O)NCc2ccc(Cl)cc2)CC1	-8.1%	6.72%	-6.64%	-7.71%	-8.09%
CCOC(=O)c1cccc(NS(=O)(=O)c2ccc3c(c2)NC(=O)C(C)C(=O)N3)c1 (stereo not drawn)	3.08%	0%	2.1%	9.53%	-0.028%
O=S(=O)(NCc1ccc(F)cc1)c1ccccc1-c1nc(-c2ccc(F)cc2)no1	15%	3.7%	13.5%	6.59%	7.66%
CC(=O)OC1C(=O)C2C3OCC4=C3[C@@](C)(CC[C@@H]4O)CC[C@]2(C)[C@H]1C(C)C (stereo partly drawn)	-1.85%	-3.25%	8.9%	-18.9%	-12.9%
Cc1ccc(NC(=O)CSc2nnc3n(C)c(=O)c4ccc(C(=O)NC5CCCC5)cc4n23)cc1F	0.67%	0%	8.54%	1.7%	8.76%
COc1ccc(/C=C/C(=O)O[C@@H]2[C@@H](O)[C@@H](O)[C@H](O[C@H]3[C@@H]4C=CO[C@@H](O[C@@H]5O[C@H](CO)[C@@H](O)[C@H](O)[C@H]5O)[C@@H]4[C@@]4(CO)O[C@@H]34)O[C@H]2C)cc1	0%	2.66%	4.72%	-7.39%	6.22%
COc1ccc(N2C(=O)c3cc4oc(C)cc4n3CC2(C)C(=O)NC2CCCCCC2)cc1OC (stereo not drawn)	-4.81%	2.88%	-0.501%	2.04%	-1.14%

SMILES	activity change, negative = inhibition [1]	activity change, negative = inhibition [2]	activity change, negative = inhibition [3]	activity change, negative = inhibition [4]	activity change, negative = inhibition [5]
Cc1ccc(NC(=O)[C@@H]2OCC(=O)N(C)[C@H]2c2ccccc2)cc1	-0.488%	-0.638%	1.66%	0.409%	1.74%
O=C(O)c1ccccc1Nc1ccccc1	-3.4%	6.87%	6.75%	-9.1%	-5.72%
CCNC(=O)N1CCCC(Cc2noc(-c3ccccc3)n2)C1 (stereo not drawn)	-7%	-6.02%	-4.92%	-8.35%	-3.25%
CN(CCO)C[C@@H]1CN(C(=O)CCc2nc3ccc(F)cc3[nH]2)C[C@@H]1CO	-6.28%	-8.63%	-6.82%	-15.2%	-11.7%
COc1cccc(CNC(=O)[C@@H]2C[C@@H](O)CN2C2CCN(C(=O)Cc3c[nH]c4ccccc34)CC2)c1	-8.77%	-7.88%	-2.63%	-11.7%	-5.27%
Cc1cc(C(=O)Nc2cc(Nc3ccc4c(/C=C/c5ccccn5)n[nH]c4c3)ccc2F)n(C)n1	-20.4%	-3.39%	-4.72%	-21.1%	-12.7%
Cc1noc(-c2cccs2)c1C(=O)NCCC(c1ccccc1)c1ccccc1	-1.95%	0.437%	1%	-5.24%	-1.53%
Cc1ccc(N2C(=O)c3ccc(-c4ccco4)n3CC2(C)C(=O)NC2CCCC2)c(C)c1 (stereo not drawn)	-2.65%	3.32%	-1.88%	-3.24%	-5.32%
COCC1CN(C(C)=O)CC12CCN(C(=O)CC1CCCCC1)CC2 (stereo not drawn)	-3.9%	-6.87%	-1.55%	-7.03%	1.07%
COc1c(C)c(OCC=C(C)C)cc2c1CNC2=O	1.17%	0.988%	6.04%	-22.4%	-5.3%
O=C(c1ccccc1-c1ncc[nH]1)N1CCOC(Cc2cccc(F)c2)C1 (stereo not drawn)	0.084%	0.777%	2.27%	-2.72%	8.64%
CC1(C(=O)NC2CCCCCC2)Cn2c(cc3sccc32)C(=O)N1Cc1ccc(F)cc1 (stereo not drawn)	-9.93%	0.734%	-10.9%	-15.3%	-11.5%
COc1ccc(CN2C(=O)c3cc(-c4cccs4)nn3CC2(C)C(=O)NC2CCCCC2)cc1 (stereo not drawn)	3.72%	2.13%	8.31%	12.1%	3.6%
CS(=O)(=O)N1CCCN(C(=O)CCCc2ccccc2)c2ccccc21	-3.49%	-1.42%	0.932%	-7.6%	-1.77%
COC(=O)c1ncn2c1C(=O)N(c1cccc(C)c1C)C(C)(C(=O)NCc1ccccc1)C2 (stereo not drawn)	-2.71%	0%	6.11%	2.37%	1.79%
O=C(Cn1cccc1-c1nc(-c2ccc(F)cc2)no1)NCc1ccccc1Cl	-1.73%	-0.327%	-1.8%	1.72%	-4.68%
CCN1C(=O)c2cc(C(=O)NCCc3ccc(SC)cc3)nn2CC1(C)C(=O)NC1CCCC1 (stereo not drawn)	7.95%	0.756%	-0.649%	6.31%	7.21%
CC(C)(C)c1ccc(C(=O)Nc2cn3cc(-n4ccnc4)ccc3n2)cc1	0.289%	8.32%	9.23%	-11.8%	5.56%
COCCCNC(=O)N1CCCC(c2[nH]ccc2C(N)=O)C1 (stereo not drawn)	-1.79%	-2.02%	0.459%	0.692%	-1.35%

From PubChem BioAssay AID1745853 (National Center for Advancing Translational Sciences (NCATS), 2022)
